Experimental data taken from paper PMC4271846 (Journal of neuroscience research, 2008).

Target: purified nucleotide-free recombinant wild-type bovine hsc70 (bovine, UniProt P19120)
Assay: SPR

Sequence of UniProt P19120 (P19120 whole entry): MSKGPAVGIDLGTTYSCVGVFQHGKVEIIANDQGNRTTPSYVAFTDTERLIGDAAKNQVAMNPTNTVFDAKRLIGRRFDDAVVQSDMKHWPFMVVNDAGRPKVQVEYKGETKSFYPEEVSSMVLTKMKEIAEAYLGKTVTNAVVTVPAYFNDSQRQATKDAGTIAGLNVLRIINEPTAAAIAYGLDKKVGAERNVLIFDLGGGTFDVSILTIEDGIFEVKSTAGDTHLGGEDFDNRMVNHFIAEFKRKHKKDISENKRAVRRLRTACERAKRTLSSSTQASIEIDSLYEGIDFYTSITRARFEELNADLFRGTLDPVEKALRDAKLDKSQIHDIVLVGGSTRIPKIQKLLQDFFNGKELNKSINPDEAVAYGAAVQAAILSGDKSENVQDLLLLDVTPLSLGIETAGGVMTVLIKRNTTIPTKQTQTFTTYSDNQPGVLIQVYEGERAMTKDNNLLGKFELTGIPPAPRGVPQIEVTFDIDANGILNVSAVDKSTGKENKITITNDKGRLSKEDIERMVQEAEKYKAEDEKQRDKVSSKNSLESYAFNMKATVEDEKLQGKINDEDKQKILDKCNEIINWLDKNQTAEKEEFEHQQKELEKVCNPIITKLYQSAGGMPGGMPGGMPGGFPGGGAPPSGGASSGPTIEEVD

B1: recombinant human wild-type 4R tau (0N4R), untagged (natural protein)
chain: not shown
Kd: 160 nM
koff: 0.00344 s⁻¹
kon: 21600 M⁻¹ s⁻¹
